± gives the standard deviation of the averaged measurements. The full ranking holds about 4,000 sequences; the median of “arbitrary fluorescence units” is about 830, and the highest 2% start at about 6,500. The list lacks most of the strong results.
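Also: Full-length recombinant human RUNX1 bound to double-stranded DNA microarray spots, detected with an Alexa488-labelled secondary antibody after the anti-RUNX1 primary, read as scanned spot fluorescence.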

UniProt Q01196, sequence (Q01196 whole entry): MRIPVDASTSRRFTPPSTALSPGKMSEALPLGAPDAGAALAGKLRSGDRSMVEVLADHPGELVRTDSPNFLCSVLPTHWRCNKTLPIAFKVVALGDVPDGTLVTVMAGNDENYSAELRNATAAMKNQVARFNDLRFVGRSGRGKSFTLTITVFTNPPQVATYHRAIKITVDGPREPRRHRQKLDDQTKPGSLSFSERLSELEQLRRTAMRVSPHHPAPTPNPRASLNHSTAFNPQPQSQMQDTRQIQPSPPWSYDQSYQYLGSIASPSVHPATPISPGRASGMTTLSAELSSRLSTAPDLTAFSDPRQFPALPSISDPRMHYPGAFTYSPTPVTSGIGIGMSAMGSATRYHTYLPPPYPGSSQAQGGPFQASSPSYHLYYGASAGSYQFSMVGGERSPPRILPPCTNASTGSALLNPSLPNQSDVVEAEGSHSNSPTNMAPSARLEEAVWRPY

This assay addresses RUNX1 (UniProt Q01196). The assay can be described thus: RUNX1 binding intensity (PBM fluorescence), RUNX1 alone (arbitrary fluorescence units); higher = stronger binding. To be noted: RUNX1 concentration 2 nM; ETS1 concentration 0 nM. The method, then:
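gcPBM on 36-bp genomic-derived probes (partner site mutated) containing one RUNX1 site and no ETS1 site. Recombinant human RUNX1 (2 nM) was incubated alone or with ETS1 (25 nM) and detected by anti-RUNX1 antibody fluorescence. Values are medians over 4 replicate spots (not normalised). The probes sit in constant array flanks that are not printed.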
Regarding GGTCTTATCTTGTGGTTCCCAAGGAATCAGGTCCCG, the RUNX1 binding intensity worked out at 1280 ± 110. Under CAGGCTGCTTCAGGCGCGCGGCAGAGCGGTCAGAGC stands 716. CCGAGACACCGCGGGCGAGCGCATGATGGGGTTGTC showed an RUNX1 binding intensity of 795.

In the case of ACAAGAGGAATTGAGTCTACCCATGATGCGGTCACA, the RUNX1 binding intensity turned out to be 944.

Consider AAGTCTGCATGTGGGAGAGGAACATGCTGTTTGCCT, for which the RUNX1 binding intensity was determined as 787. The figure for GCTTGTGGTTGGAAACCTGCAGTCACAGAGGAGGTG is 1860; for GCCACCTTACCACAGCTGTACAGAGCTCCCTTTAGC it is 1970; for GTCCCTCCACAACCGCCCCCAGCTTGCTGCTCCCCA it is 1370. Under AACAGCTTACGGCACGGGGGCTGTGGTTGTGTTGGA stands 801; under GGCTACGGCAACTCGCGAGAGCGCGGTTCAGAGGCA, 696; under CCCTGAGCACGTCCCCGTAAGGCTGCGGTGCACGGG, 820. The figure for TAGAAGGCAGCGGTCTGAGTTCTGGAGTAGAAGGCA is 707; for CTCTGTGCCCTGCCGCAACAGACAGGGTGTGACTTC it is 917; for ATCTGCAACCACGGAGGCTGCCGCGGGCTTCATGTC it is 802. Take GAGAAACATGAAGAGGGGTGGTGGTTACGGAACACG: the RUNX1 binding intensity was determined as 714. Turning to GCGCGGGAGCAAGCCCCCCAATAATTGCGGGGCTTC, the RUNX1 binding intensity is 772. Under GCACACAGTGCGGTTGGCTTCCAGCTTCATGTTGGC stands 1470; under GTGACGTGGCTGTGGGTCTCATTTGCTGCACGGCCT, 798; under AGACTTCACCGCAGCTTGCTGCCTCAGAGGAGGTCA, 1330. GTGCTAAGTGAGGAGGTGCAGTTTACCGCACGGTGG showed an RUNX1 binding intensity of 790. As to AGCGGCCAGGCCGCAGAGCCGGCCCCTTCAGCTTTA, the RUNX1 binding intensity was found to be 776. In turn, TCTAGTAAAAGAGGGAGTTCTTAACCACATTTCCAT had an RUNX1 binding intensity of 1030. In turn, CTGCGGCTGGGACCCAGTTCCTGTACATGAAGACAT returned an RUNX1 binding intensity of 761. In turn, GACCCCTACGCGGCACTCTCTCGCGGTAATTCGAAG showed an RUNX1 binding intensity of 947. The figure for TGAAACCACAATTAAAAGCTCAGACCTCCTCCCCTC is 2360; for CCCGCTCCTGCGGCGCAAGCCCGCCTTGCTGAAGAA it is 875; for GCCCTGCGGGCAGGAGAAGAGTCCGTAAATGGAAAT it is 768. Under AAGACAACATGCTGCCGGCACAGCCTGCGGGTTACT stands 741; under ACCATGCTGTAGTCTGTTAAGTGAGCAACCGCATTA, 787; under CATCTGTGGTCTCCTTGAAGTCAGATCCCACAGGAG, 886. Under TAAGAGATTGCCTGTAAAGGTAACCACCAGCAAAGA stands 752. As for TTGACTGTGGGCCGAAGCCGGGCCGAAGCAGACAGG, the RUNX1 binding intensity is 691.

Sequence GACCTCCTTCTCCACATACCTGAAAGTGGTTTCTGG had an RUNX1 binding intensity of 1030. Sequence ACAGTATTGTGGTGAATCATTCCATTCCAAGGCTCA came in with an RUNX1 binding intensity of 966. The figure for CTTTGTGGTCTGCCAGGCACGGATCTCCGCCCACTC is 2250; for AGTCAAACAGGGTGTGGCTGGGGAGGCGGTTGTCAC it is 799; for TGGCATTCTCCTTCATGTCTCCTAACCACAGCCCAC it is 2220.

For the sequence AAAAATACCACACTAGCTAGGGCAGCAAGTGGGTGG, the RUNX1 binding intensity came out at 905. The sequence ATCTTGTTCAGGCTCAAAGGGAAACCGCTGCTTTTC yielded an RUNX1 binding intensity of 914. The sequence GGTGACGTCACCGCGTTCACCAGCCCGGGAGTGCGC registered an RUNX1 binding intensity of 734. The figure for TGGCTTGTTTCAGGTTCCTCTGTGGCGCCGTTCTCG is 822; for AGAAGCTGCACCCTGAAATGAAACCACCAGGACCTC it is 757; for GGTTGCCGGGTGAAAAAAAAAAAAAAAACCACGCCA it is 906. The figure for GGCAGACAGTAAACCGCGGCGTTTCATGGAGGGCGC is 1290. The figure for TGGCCGCGGTCTGTAGACGCCCGGCTCCGGGAGTGC is 721; for GTGGAAGAAACCGCTTCGGCAGCAGAGGAATCAGCA it is 837.

Regarding GCCTCCTTCATGGGCTCCTTTAAGAGGGTGGTAACG, the RUNX1 binding intensity was 782.

Regarding ACCCACTTGCTGTTAGAGCATCTTTGCAACCACAGG, the RUNX1 binding intensity stood at 729. The figure for CGTTCTCTCATTTGCTGTGTGCACCCACATGAACCA is 1580. The figure for CGGTAGGCGGTTATCCTCCAAGCTGGCAGGGAGCGC is 748; for GGGAGGACGAAGGGGCTGTGTGTGGGAGTTGGGGGC it is 710. The figure for TCTTTAAAACCCGAAAGTTCCTGTGGTTCATACGCT is 1010. In the case of ATGAAACCAAAACCAAAAAGGAAGGTAACCAGAAAG, the RUNX1 binding intensity came out at 839. The figure for TCGGGAGGTGGCATGCTGACTCACCTGTGGCTTGTT is 797. Under CTGACTTGTTGTGGTCTCTGCCACTTGCTGGGGTGT stands 947; under GCTCTGTGGGCTTGGAGGATGCAGGCGCCTTCATGG, 766; under CCGTAAGCGGTCTTTCCCCGAGCTGAAGCACAATGC, 882. The figure for GGAACAGTAAACAAAGAAAGGTGCTGTTGTGGCGCC is 676; for CTCTTAACTCGCGGTCCCGCCCCTTCAGGCCAGTGT it is 1110; for AGAGTCTTTTTTACTGAGCGTTTGCGGTTTTGACTT it is 8560. Sequence TTTCCACTGCCTGTTCTACTTGTGGCTACTGACTCA showed an RUNX1 binding intensity of 856.

As for AATCATTGCCTGCCCTAACGTTTGTGGTCTGCCTAG, the RUNX1 binding intensity came out at 813.

The record behind these values is the supplement of paper PMC10681739.
